According to PubChem BioAssay AID624417 (National Center for Advancing Translational Sciences (NCATS), 2012):
Several values for one entry are separate records, joined by “and”; a condition that tells them apart may be missing. Equal entries are not always repeated. Out of some 410,000 compounds screened, about 6,400 (1.6%) were called active. The inconclusive results got no clear call from the source; some entries with a clear call stand among them for comparison. The call rests on the fitted dose curve; in most records, active means well fitted inhibition curve with a large enough effect; inconclusive means small, poorly fitted or top-dose-only effect; inactive means no such curve, though single readings can be large or run the other way. Potencies of inconclusive entries are doubtful fits and often do not repeat.

Target: Glucagon-like peptide 1 receptor (Homo sapiens) (UniProt P43220)
Experiment: qHTS of GLP-1 Receptor Inverse Agonists (Inhibition Mode); further: nearly all actives have a fitted effect of over 55% in size
Conditions: HEK293 GLP-1R CRE-luciferase, luminescence, 24 h, GLP-1R form is constitutively active; activity change, negative = inhibition: at 38.3 µM (top of the series) unless noted
In short: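 HEK293 cells stably co-expressing constitutively active GLP-1R and a cAMP-responsive luciferase reporter were seeded in DMEM with 10% Nu serum, given compounds after 12 h, and incubated 24 h at 37 deg C. Luminescence was then read.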
On the % scale 0 is the no-effect control and ±100 the full control effect; potency means the concentration at half of the fitted maximal effect; tags describe the fitted curve by direction and shape.

Sequence of UniProt P43220 (P43220 whole entry, looked up): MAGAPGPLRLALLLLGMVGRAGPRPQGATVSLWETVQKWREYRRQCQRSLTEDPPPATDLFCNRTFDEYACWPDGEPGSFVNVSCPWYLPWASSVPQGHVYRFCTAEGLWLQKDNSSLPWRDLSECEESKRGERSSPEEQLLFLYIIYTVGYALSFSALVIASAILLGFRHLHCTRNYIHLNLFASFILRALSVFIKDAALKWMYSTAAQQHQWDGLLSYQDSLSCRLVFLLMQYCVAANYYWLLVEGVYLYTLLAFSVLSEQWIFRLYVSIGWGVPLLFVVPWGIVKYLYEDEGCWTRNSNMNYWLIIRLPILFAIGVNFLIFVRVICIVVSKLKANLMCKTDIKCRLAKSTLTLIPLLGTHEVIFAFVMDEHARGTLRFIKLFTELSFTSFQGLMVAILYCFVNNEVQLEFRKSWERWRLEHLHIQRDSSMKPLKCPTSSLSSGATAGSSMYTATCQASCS

SMILES	Potency	activity change, negative = inhibition
O=C(N[C@@H](Cc1ccccc1)C(=O)N1CCC2(CC1)NCCc1[nH]cnc12)c1cccc(Br)c1	active: 10 µM	
Cc1ccc(CCNC(=O)C2CCN(S(=O)(=O)c3ccc4c(ccn4C)c3)CC2)cc1	inconclusive: 28.2 µM [inhibitor, single point]	
Cc1ccc(SCC(=O)O/N=C(\N)c2ccncc2)cc1	inconclusive: 20 µM [inhibitor, single point]	
CCN1CCN(Cc2ccc(NC(=O)c3ccc(C)c(NC(=O)c4c[nH]c5cc(C(F)(F)F)ccc5c4=O)c3)cc2C(F)(F)F)CC1	active: 10 µM	
Cc1ccc(CNC(=O)CSc2nc3ccccc3nc2Cc2ccc(C)cc2)cc1		inactive: -19.3%
O=C(/C=C/Nc1cccc(O)c1)c1ccccc1	inconclusive: 11.2 µM [inhibitor, single point]	
COCCCNC(=O)CN(c1cc(Cl)ccc1OC)S(=O)(=O)c1ccc(C)c([N+](=O)[O-])c1	inconclusive: 7.94 µM [inhibitor, partial curve, poor fit]	
Cc1cc(C(=O)OCC(=O)N2C(C)CCCC2C)c2ccccc2n1 (stereo not drawn)	inconclusive: 28.2 µM [inhibitor, single point]	
CCn1ccnc1CN(C)Cc1cn[nH]c1-c1ccc(OC)c(F)c1	active: 10 µM	
Oc1c(CN2CCOCC2)cc(COCc2ccccc2)c2cccnc12	inconclusive: 0.501 µM [inhibitor, full curve, poor fit]	
COc1ccccc1CNC(=O)CCCCn1c(=O)c2ccccc2n(Cc2ccccc2F)c1=O		inactive: 3.5%
CCn1c(COc2ccccc2C)nc2ccccc21	inconclusive: 28.2 µM [inhibitor, single point]	
COc1ccc(NC(=O)Nc2cccc(C(F)(F)F)c2)cn1	inconclusive: 8.91 µM [inhibitor, partial curve, poor fit]	
COC1=CC(=O)C=C(OC)C1=O	inconclusive: 28.2 µM [inhibitor, single point]	
COc1ccccc1Oc1ccc(Oc2ccccc2OC)cc1	inconclusive: 10 µM [inhibitor, partial curve, poor fit]	
Cc1nnsc1C(=O)NNS(=O)(=O)c1cc(C(F)(F)F)cc(C(F)(F)F)c1		inactive: 8.45%
Cc1nn2cc(-c3ccc(OC(C)C)cc3)nc2s1	inconclusive: 10 µM [inhibitor, single point]	
CN(C(=O)C(C)(C)C)C1c2c(ccc3ccccc23)OCC1CO (stereo not drawn)		inconclusive: -59.9% [inhibitor]
Cc1ccsc1C(=O)OCC(=O)Nc1cccc(S(=O)(=O)N2CCOCC2)c1	inconclusive: 10 µM [inhibitor, partial curve, poor fit]	
Cc1cc(C)c2nc(-c3ccccn3)cc(C(=O)Nc3ccc(S(=O)(=O)Nc4cc(C)on4)cc3)c2c1	inconclusive: 28.2 µM [inhibitor, single point]	
O=C(Nc1ccc(F)cc1F)c1ccc2c(=O)n3c(nc2c1)CCC3	inconclusive: 10 µM [inhibitor, single point]	

SMILES	Potency	activity change, negative = inhibition
Cc1oc(-c2ccc(Cl)cc2)nc1Cn1c(=O)cc(C)c2c(C)nn(-c3ccccc3)c21		inactive: -5.82%
Nc1cccc2c1C(=O)N(CCOc1ccccc1F)C2=O	inconclusive: 12.6 µM [inhibitor, single point]	
CCOC(=O)C1CCCN(C(=O)c2cc3c(C)nc4ccccc4c3o2)C1 (stereo not drawn)		inactive: 42.5%
CCCOC(=O)c1cc(-c2ccc(/C=C3/C(=O)N(C)C(=O)C(C#N)=C3C)o2)ccc1Cl		inactive: -3.53%
O=C(COc1ccc(F)cc1)N(Cc1ccc(Cl)cc1)C1CCS(=O)(=O)C1 (stereo not drawn)	inconclusive: 6.31 µM [inhibitor, partial curve]	
COc1ccccc1NC(=O)CN(c1ccccc1OC)S(=O)(=O)c1ccccc1	inconclusive: 31.6 µM [inhibitor, single point]	
COc1ccc(OC)c2c1sc(=NC(=O)c1cccc(N3C(=O)CCC3=O)c1)n2C		inactive: 0.454%
COc1ccccc1C(C)Nc1ccc(S(=O)(=O)N2CCN(C)CC2)cc1[N+](=O)[O-] (stereo not drawn)	inconclusive: 22.4 µM [inhibitor, single point]	
COc1ccc(NS(=O)(=O)c2ccc(S(=O)(=O)N3CCCC3)cc2)cc1	inconclusive: 28.2 µM [inhibitor, single point]	
Cc1ccccc1Sc1c(C#N)c(-c2ccccc2)nn1C	inconclusive: 11.2 µM [inhibitor, single point]	
Cc1cc(Br)cn2c(Cc3cccc(F)c3)c(-c3ccccc3)nc12	inconclusive: 10 µM [inhibitor, partial curve]	
O=C(CCSCc1cccc(Cl)c1)NCCc1ccc(Cl)cc1	inconclusive: 12.6 µM [inhibitor, partial curve, poor fit] and inconclusive: 28.2 µM [inhibitor, single point]	
O=C(N1CCCCCC1)N1CCN(S(=O)(=O)c2cccc([N+](=O)[O-])c2)CC1	inconclusive: 6.31 µM [inhibitor, partial curve, poor fit]	
CCc1ccc(N(CC)C(=O)c2ccc3c(Cl)c4c(nc3c2)CCC4)cc1	inconclusive: 10 µM [inhibitor, partial curve, poor fit]	
CN1CCN(CC(O)COc2ccc(C34CC5CC(CC(C5)C3)C4)cc2)CC1 (stereo not drawn)	inconclusive: 7.08 µM [inhibitor, partial curve, poor fit]	
O=C(c1ccccc1)N1CCc2cc(CNS(=O)(=O)c3ccc(Cl)s3)ccc21		inactive: -17.1%
Cc1ccc2nc(N(CCCN(C)C)C(=O)COc3ccc(Cl)cc3)sc2c1	inconclusive: 10 µM [inhibitor, partial curve]	
CC(C)(C)n1cn[nH]c1=S		inactive: 10.8%
O=C(COC(=O)C12CC3CC(CC(Cl)(C3)C1)C2)N1CCCCC1	inconclusive: 10 µM [inhibitor, partial curve, poor fit]	
CN(CCc1ccccn1)C(=O)Nc1cc(Cl)cc(Cl)c1	inconclusive: 10 µM [inhibitor, single point]	
Cc1nn2c(NCCCN(C)C)c3c(nc2c1-c1ccccc1)CCC3	inconclusive: 22.4 µM [inhibitor, partial curve, poor fit]	

SMILES	Potency	activity change, negative = inhibition
CCN(CC(=O)Nc1ccccc1C(F)(F)F)C(=O)c1oc2ccc(OC)cc2c1C	inconclusive: 6.31 µM [inhibitor, partial curve, poor fit]	
CCN(CC)CCCNc1nc2ccccc2c2nc(-c3ccncc3)nn12	inconclusive: 3.55 µM [inhibitor, full curve, poor fit]	
COc1ccc(S(=O)(=O)Nc2ccc(Cc3ccncc3)cc2)cc1OC		inactive: 18.8%
CC(=O)Nc1ccc(C=CC(=O)c2ccc([N+](=O)[O-])cc2)cc1		inactive: -3.33%
Cc1ccc(C)c(NC(=O)C2CCN(S(=O)(=O)c3ccc4c(c3)NC(=O)CO4)CC2)c1	inconclusive: 28.2 µM [inhibitor, single point]	
CCc1c(C2(O)CCCCC2)[nH]c2c(C(=O)OC)cc(Cl)cc12	inconclusive: 12.6 µM [inhibitor, single point]	
CN(C)C(CNC(=O)c1cccc(S(=O)(=O)Nc2ccccc2Cl)c1)c1ccccc1 (stereo not drawn)	inconclusive: 14.1 µM [inhibitor, single point]	
COc1ccc(-c2cc(C(=O)N3CCCCCC3)c3ccccc3n2)cc1	inconclusive: 10 µM [inhibitor, single point]	
Cc1ccc(C)c(Cn2cnc3c(cnn3C(C)(C)C)c2=O)c1	inconclusive: 10 µM [inhibitor, partial curve, poor fit]	
CCCC1=Nc2cc(C(=O)N3CCC(C(=O)OCC)CC3)ccc2Sc2ccccc21	inconclusive: 22.4 µM [inhibitor, single point] and inconclusive: 10 µM [inhibitor, partial curve, poor fit]	
C[C@@H]1CN([C@@H](C)CO)S(=O)(=O)c2ccc(Br)cc2O[C@H]1CN(C)C(=O)Nc1ccc(C(F)(F)F)cc1	active: 7.94 µM	
CC(N1CCOC1=O)S(=O)(=O)c1ccccc1 (stereo not drawn)		inactive: 0.231%
Cc1onc(-c2c(Cl)cccc2Cl)c1C(=O)N1CCN(c2ccccc2F)CC1	inconclusive: 28.2 µM [inhibitor, single point]	
Cn1nnnc1SCC(=O)N1N=C(c2ccc(Cl)cc2)CC1c1ccco1 (stereo not drawn)	inconclusive: 14.1 µM [inhibitor, single point]	
COc1cc2c(cc1OC)C(C)N(C(=O)c1c(-c3ccccc3)noc1C)CC2 (stereo not drawn)	inconclusive: 2.82 µM [inhibitor, full curve, poor fit]	
COc1ccc(Cn2c(C3CC3)nc3ccc(NC(=O)c4cccnc4)cc3c2=O)cc1	inconclusive: 0.355 µM [inhibitor, full curve, poor fit]	
CCOC(=O)N1CCC(n2c(SCC(=O)Nc3ccccc3OC)nc3ccccc3c2=O)CC1	inconclusive: 11.2 µM [inhibitor, single point]	
COc1ccccc1C(=O)N(c1ccc(C)cc1)S(=O)(=O)c1ccc(Cl)cc1	inconclusive: 8.91 µM [inhibitor, partial curve, poor fit]	
CCC(=O)N1c2ccccc2CC1C(=O)NCc1cc(Br)ccc1OC (stereo not drawn)		inactive: -5.13%
COc1ccc(-c2csc3ncnc(N4CCN(S(=O)(=O)c5ccc(Cl)s5)CC4)c23)cc1	inconclusive: 11.2 µM [inhibitor, single point]	
CCC1(c2ccccc2)NC(=O)N(CC(=O)NNC(=O)COc2ccc(Cl)cc2C)C1=O (stereo not drawn)	inconclusive: 12.6 µM [inhibitor, single point]	
